Test results from the RNAGym collection of RNA variant scans (doi:10.1093/nar/gkz1192).
Read counts are not given, so values of variants with three or more changes are uncertain.

B1: CPEB3 Ribozyme (parent)
chain: UAACAGGGGGCCACAGCAGAAGCGUUCACGUCGCAGCCCCUGUCAGAUUCUGGUGAAUCUGCGAAUUCUGCUGUAUAUCUC

Variants of: B1
Assay: self-cleavage, relative activity (ratio to wild type); higher = more cleavage; in vitro, sequencing
Procedure, shortened: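 CPEB3 self-cleaving ribozyme mutant libraries were made by rounds of error-prone PCR, barcoded, and transcribed in vitro with T7 RNA polymerase for 5 hours at 37°C. Cleavage occurred during transcription and a 15 min DNase I step before EDTA stop. RNAs were reverse transcribed with template switching and Illumina-sequenced, with DNA sequencing mapping barcodes to variants. Relative activity is the variant's cleaved/total read fraction divided by wild type's (minimum 5 reads), averaged across three batches.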
In the case of UAACAGGGGGCCACAGCAGAGGCGUUCACGUCGCAGCCCCUGUCAGAUUCUGGUGAGUCUGCGAAUUCUGCUGUAUACCUC, the self-cleavage is reported as 0.28. Work on UAACAGGGGGCCACAGCAGAGGCGUUCACGUCGCAGCCCCUGUCAGAUUCUGGUGAGUCUGCGAAUUCUGCUGUAUAUCCC yielded a self-cleavage of 0.75. UAACAGGGGGCCACAGCAGAGGCGUUCACGUCGCAGCCCCUGUCAGAUUCUGGUGAAUCUGCGGAUUCUGCAGUAUAUCUC showed a self-cleavage of 0.43. For UAACAGGGGGCCACAGCAGAGGCGUUCACGUCGCAGCCCCUGUCAGAUUCUGGUGAAUCUGCGGAUUCUGCUGAUUAUCUC, the self-cleavage was 0.69. UAACAGGGGGCCACAGCAGAGGCGUUCACGUCGCAGCCCCUGUCAGAUUCUGGUGAAUCUGCGGAUUCUGCUGCAUAUCUC showed a self-cleavage of 0.75. Work on UAACAGGGGGCCACAGCAGAGGCGUUCACGUCGCAGCCCCUGUCAGAUUCUGGUGAAUCUGCGGAUUCUGCUGCGUAUCUC yielded a self-cleavage of 0.52. For UAACAGGGGGCCACAGCAGAGGCGUUCACGUCGCAGCCCCUGUCAGAUUCUGGUGAAUCUGCGGAUUCUGCUGUAAAUCUC, the self-cleavage was 0.38. Variant UAACAGGGGGCCACAGCAGAGGCGUUCACGUCGCAGCCCCUGUCAGAUUCUGGUGAAUCUGCGUAUUCUGCUGUGUAUCUC has a self-cleavage of 0.16. Variant UAACAGGGGGCCACAGCAGAGGCGUUCACGUCGCAGCCCCUGUCAGAUUCUGGUGAAUCUGCGUAUUCUGCUGUAUAUCAC has a self-cleavage of 0.25. With UAACAGGGGGCCACAGCAGAGGCGUUCACGUCGCAGCCCCUGUCAGAUUCUGGUGAAUCUGCGACUUCUGCUGUAUUUCUC the self-cleavage was 0.19. Work on UAACAGGGGGCCACAGCAGAGGCGUUCACGUCGCAGCCCCUGUCAGAUUCUGGUGAAUCUGCGAGUUGAGCUGUAUAUCUC yielded a self-cleavage of 0.12. For UAACAGGGGGCCACAGCAGAGGCGUUCACGUCGCAGCCCCUGUCAGAUUCUGGUGAAUCUGCGAGUUCUGCUAUAUAUCUC, the self-cleavage was 0.21. For UAACAGGGGGCCACAGCAGAGGAGUUCUCGUCGCAGCCCCCGUCAGAUUCUGGUGAAUCUGCGAAUUCCGCUGUAUAUCUC, the self-cleavage was 0.06. UAACAGGGGGCCACAGCAGAGGAGUUCACGUCGCAGCCCCUGUCAGAUUCUGGUGAAUCUGCGAAUUCUGCUGUAUACCUC gave a self-cleavage of 0.18. Work on UAACAGGGGGCCACAGCAGAGGGGUUCACGUCGCUGCCCCUGUCAGAUUCUGGUGAACCCGUGAAUUCUGCUGUAUAUCUC yielded a self-cleavage of 0.02. For UAACAGGGGGCCACAGCAGAGGGGUUCACGUCGCAGCCCCUGUCAGAUUCUGGUGAAUCUGCGGAUUCAGCCGUAUAUCUC, the self-cleavage was 0.13. Work on UAACAGGGGGCCACAGCAGAGGUGUUCGCGUCGCAGCCCCUGUCAGGUUCUGGUGAAUCUGCGAAUUCUGCUGUAUAUCUC yielded a self-cleavage of 0.03. UAACAGGGGGCCACAGCAGAGGUGUUCACGUCGCGGCCCCUGACAGAUUCUGGUGAAUCUGCGAACUCUGCUGUAUGUCAC showed a self-cleavage of 1.09. Variant UAACAGGGGGCCACAGCAGAGGUGUUCAUGUCGCAGCCCCUGUCAGAUUCUGGUUAAUCUGCGAAUUCUGCCGUAUAUCUC has a self-cleavage of 0.08. Work on UAACAGGGGGCCACAGCAGAGGUGUUCACGUCGCAGCCCCUGUCAGAUUCUGCUGAAUCUGCGAAUUCUGCUGUGUAUCUC yielded a self-cleavage of 0.14. For UAACAGGGGGCCACAGCAGAGGUGUCCACGUCGCAGCCCCUGUCAGAUUCUGGUGAAUCUGCGAAUUCCGCUGUAUAUCUC, the self-cleavage was 0.18. UAACAGGGGGCCACAGCAGAGGUGUUCACGUCGCAGCCCCAGUCAGAUUCUGGUGGAUCUGCGAAUUCUGCUGUAUAUCUC showed a self-cleavage of 0.11. With UAACAGGGGGCCACAGCAGAGGUGUUCACGUCGCAGCCCCUGACAGAUUCUGGUGAAUCUGCGAAUUCAGCUGUAUAUCUC the self-cleavage was 0.2. For UAACAGGGGGCCACAGCAGAGGUGUUCACGUCGCAGCCCCUGCCAGAUUCUCGUGAAUCUGCGUAUUCUGCUGUAUAACUC, the self-cleavage was 0.06. Work on UAACAGGGGGCCACAGCAGAGGUGUUCACGUCGCAGCCCCUGUCAGAUUCUGGUGAACCUGCGAAUUAAGCUGAAUAUCUC yielded a self-cleavage of 0.01. UAACAGGGGGCCACAGCAGAGGUGUUCACGUCGCAGCCCCUGUCAGAUUCUGGUGAAUCCGCGAAUUCUGCUGUAUAUCUC gave a self-cleavage of 0.17. Variant UAACAGGGGGCCACAGCAGAGGCGUUAACGUCGCAGCCCCUGUCAGGUUCUAGUGAAUCUGCGAAUUCUGCUGUAUAUCUC has a self-cleavage of 0.33. UAACAGGGGGCCACAGCAGAGGCGUUAACGUAGCAGCCCCUGUCAGAUUCUGGUGAAUCUGCGAGUCCUGCUGUAUAUCUC gave a self-cleavage of 0.07. With UAACAGGGGGCCACAGCAGAGGCGUUAACGUCGCAGCCCCCGUCAGAUUCUGGCGAAUCUGCGAAUUCUGCUGUAUAUCUC the self-cleavage was 0.13. Work on UAACAGGGGGCCACAGCAGAGGCGUUUACGUCGCCGCCCCUGUCAGAUUCUGGUGUAUCCGCGAAUUCUGCUGUAUAUCUC yielded a self-cleavage of 0.13. UAACAGGGGGCCACAGCAGAGGCGUUUACGUCGCAGCCCUUGUCAGAUUCUGGUGAAUCUGCGGAUUCUGCUGUAUAUCUC gave a self-cleavage of 0.08. With UAACAGGGGGCCACAGCAGAGGCGUUUACGUCGCAGCCCCUGUCAGAUUCUGGUAAAUCUGCGAAUUCUGCUGUAUAUCUC the self-cleavage was 0.04. Variant UAACAGGGGGCCACAGCAGAGGCGUUUACGUCGCAGCCCCCGUCAGAUUCUGGUGAAUCUGCGAACUCUGCUGUAUAUCUC has a self-cleavage of 0.25. Variant UAACAGGGGGCCACAGCAGAGGCGUUUACGUCGCAGCCCCUGUCAGAUUCUGGUGAAUCAGCGAAUCCUGCAGUAUAUCCC has a self-cleavage of 0.08.
